{
  "source": "paper PMC12820563",
  "about": "“FoxP3 forms a head-to-head dimer in vivo and stabilizes its multimerization on adjacent microsatellites”",
  "note": "The other results are listed elsewhere or left out.",
  "data": [
    {"biological_target": "T1, MBP-FoxP1dN (Mus musculus, UniProt P58462 326-579)", "T1 sequence": "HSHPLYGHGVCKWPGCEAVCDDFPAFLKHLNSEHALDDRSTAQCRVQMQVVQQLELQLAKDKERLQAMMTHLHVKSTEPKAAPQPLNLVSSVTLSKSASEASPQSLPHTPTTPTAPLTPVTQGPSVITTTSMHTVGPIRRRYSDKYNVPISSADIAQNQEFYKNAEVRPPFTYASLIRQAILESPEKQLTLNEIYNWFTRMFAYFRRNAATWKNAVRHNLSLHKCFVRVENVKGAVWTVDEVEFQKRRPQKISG", "test": "PD-seq (MBP pull-down with sequencing); 20 mM Tris-HCl pH 7.5, 100 mM NaCl, 1.5 mM MgCl2, 0.4 uM protein, 0.1 uM dsDNA library, 30 min, room temperature, amylose pull-down; high values mean tight binding", "details": "protein: recombinant; tags: His6-MBP; chain copies: 2; dsDNA, one strand shown", "procedure,_shortened": "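Binding is the reads-per-million enrichment of pull-down relative to input, pooled across replicates. For this, 0.4 µM His6-MBP-tagged mouse FoxP3 or FoxP1 fragment lacking the N-terminus, made in E. coli, was incubated with 0.1 µM Klenow-filled double-stranded degenerate DNA library for 30 min at room temperature in Tris pH 7.5 buffer with NaCl and MgCl2. Complexes bound to amylose resin were washed three times before proteinase K released the DNA for PCR barcoding and Illumina sequencing.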", "values": [
      {"sequence": "GATGATTGTTCTCCCAGCTGATGAATTGATAACATCGAGTAAACAAATTTTCCTAATCTTTCTGTTCAAGCGCCATCTAC", "binding signal": "1.66 RPM ratio (pull-down/input)"},
      {"sequence": "GATGATTGTTCTCCCAGCTGATGAATTGAGATGCTCGAGTAAACAAATTTTCCTAATCTTTCTGTTCAAGCGCCATCTAC", "binding signal": "1.07 RPM ratio (pull-down/input)"},
      {"sequence": "GATGATTGTTCTCCCAGCTGATGAATTATGATAATCGAGTAAACAAATTTTCCTAATCTTTCTGTTCAAGCGCCATCTAC", "binding signal": "1.44 RPM ratio (pull-down/input)"},
      {"sequence": "GATGATTGTTCTCCCAGCTGATGAATTACCCGACTCGAGTAAACAAATTTTCCTAATCTTTCTGTTCAAGCGCCATCTAC", "binding signal": "0.873 RPM ratio (pull-down/input)"},
      {"sequence": "GATGATTGTTCTCCCAGCTGATGAATTGACCTGTTCGAGTAAACAAATTTTCCTAATCTTTCTGTTCAAGCGCCATCTAC", "binding signal": "0.98 RPM ratio (pull-down/input)"},
      {"sequence": "GATGATTGTTCTCCCAGCTGATGAATTGGTAATATCGAGTAAACAAATTTTCCTAATCTTTCTGTTCAAGCGCCATCTAC", "binding signal": "1.22 RPM ratio (pull-down/input)"},
      {"sequence": "GATGATTGTTCTCCCAGCTGATGAATTCCGCGCATCGAGTAAACAAATTTTCCTAATCTTTCTGTTCAAGCGCCATCTAC", "binding signal": "1.2 RPM ratio (pull-down/input)"},
      {"sequence": "GATGATTGTTCTCCCAGCTGATGAATTAAATAAATCGAGTAAACAAATTTTCCTAATCTTTCTGTTCAAGCGCCATCTAC", "binding signal": "1.49 RPM ratio (pull-down/input)"},
      {"sequence": "GATGATTGTTCTCCCAGCTGATGAATTAAGGTTATCGAGTAAACAAATTTTCCTAATCTTTCTGTTCAAGCGCCATCTAC", "binding signal": "1 RPM ratio (pull-down/input)"},
      {"sequence": "GATGATTGTTCTCCCAGCTGATGAATTTCAGCAATCGAGTAAACAAATTTTCCTAATCTTTCTGTTCAAGCGCCATCTAC", "binding signal": "0.988 RPM ratio (pull-down/input)"},
      {"sequence": "GATGATTGTTCTCCCAGCTGATGAATTTGACTCTTCGAGTAAACAAATTTTCCTAATCTTTCTGTTCAAGCGCCATCTAC", "binding signal": "0.761 RPM ratio (pull-down/input)"},
      {"sequence": "GATGATTGTTCTCCCAGCTGATGAATTTAGTCGCTCGAGTAAACAAATTTTCCTAATCTTTCTGTTCAAGCGCCATCTAC", "binding signal": "0.946 RPM ratio (pull-down/input)"},
      {"sequence": "GATGATTGTTCTCCCAGCTGATGAATTTTGCATCTCGAGTAAACAAATTTTCCTAATCTTTCTGTTCAAGCGCCATCTAC", "binding signal": "1.52 RPM ratio (pull-down/input)"},
      {"sequence": "GATGATTGTTCTCCCAGCTGATGAATTTTAACGCTCGAGTAAACAAATTTTCCTAATCTTTCTGTTCAAGCGCCATCTAC", "binding signal": "0.874 RPM ratio (pull-down/input)"},
      {"sequence": "GATGATTGTTCTCCCAGCTGATGAATTTCTGCGGTCGAGTAAACAAATTTTCCTAATCTTTCTGTTCAAGCGCCATCTAC", "binding signal": "0.8 RPM ratio (pull-down/input)"},
      {"sequence": "GATGATTGTTCTCCCAGCTGATGAATTGGTCGTTTCGAGTAAACAAATTTTCCTAATCTTTCTGTTCAAGCGCCATCTAC", "binding signal": "0.935 RPM ratio (pull-down/input)"},
      {"sequence": "GATGATTGTTCTCCCAGCTGATGAATTGTCGTGATCGAGTAAACAAATTTTCCTAATCTTTCTGTTCAAGCGCCATCTAC", "binding signal": "1.09 RPM ratio (pull-down/input)"},
      {"sequence": "GATGATTGTTCTCCCAGCTGATGAATTCAGTTTTTCGAGTAAACAAATTTTCCTAATCTTTCTGTTCAAGCGCCATCTAC", "binding signal": "0.988 RPM ratio (pull-down/input)"},
      {"sequence": "GATGATTGTTCTCCCAGCTGATGAATTCACTAGCTCGAGTAAACAAATTTTCCTAATCTTTCTGTTCAAGCGCCATCTAC", "binding signal": "0.809 RPM ratio (pull-down/input)"},
      {"sequence": "GATGATTGTTCTCCCAGCTGATGAATTAGGCAATTCGAGTAAACAAATTTTCCTAATCTTTCTGTTCAAGCGCCATCTAC", "binding signal": "1.04 RPM ratio (pull-down/input)"},
      {"sequence": "GATGATTGTTCTCCCAGCTGATGAATTAACGCACTCGAGTAAACAAATTTTCCTAATCTTTCTGTTCAAGCGCCATCTAC", "binding signal": "1.06 RPM ratio (pull-down/input)"},
      {"sequence": "GATGATTGTTCTCCCAGCTGATGAATTGTGCGGCTCGAGTAAACAAATTTTCCTAATCTTTCTGTTCAAGCGCCATCTAC", "binding signal": "0.877 RPM ratio (pull-down/input)"},
      {"sequence": "GATGATTGTTCTCCCAGCTGATGAATTCTTGCGTTCGAGTAAACAAATTTTCCTAATCTTTCTGTTCAAGCGCCATCTAC", "binding signal": "1.01 RPM ratio (pull-down/input)"},
      {"sequence": "GATGATTGTTCTCCCAGCTGATGAATTAACTTGCTCGAGTAAACAAATTTTCCTAATCTTTCTGTTCAAGCGCCATCTAC", "binding signal": "0.892 RPM ratio (pull-down/input)"},
      {"sequence": "GATGATTGTTCTCCCAGCTGATGAATTAATTTGGTCGAGTAAACAAATTTTCCTAATCTTTCTGTTCAAGCGCCATCTAC", "binding signal": "0.887 RPM ratio (pull-down/input)"},
      {"sequence": "GATGATTGTTCTCCCAGCTGATGAATTAATGGGCTCGAGTAAACAAATTTTCCTAATCTTTCTGTTCAAGCGCCATCTAC", "binding signal": "0.848 RPM ratio (pull-down/input)"},
      {"sequence": "GATGATTGTTCTCCCAGCTGATGAATTGGTGTGATCGAGTAAACAAATTTTCCTAATCTTTCTGTTCAAGCGCCATCTAC", "binding signal": "1.09 RPM ratio (pull-down/input)"},
      {"sequence": "GATGATTGTTCTCCCAGCTGATGAATTACTGGTTTCGAGTAAACAAATTTTCCTAATCTTTCTGTTCAAGCGCCATCTAC", "binding signal": "1.12 RPM ratio (pull-down/input)"},
      {"sequence": "GATGATTGTTCTCCCAGCTGATGAATTGTCTGTATCGAGTAAACAAATTTTCCTAATCTTTCTGTTCAAGCGCCATCTAC", "binding signal": "1.07 RPM ratio (pull-down/input)"},
      {"sequence": "GATGATTGTTCTCCCAGCTGATGAATTGACACGATCGAGTAAACAAATTTTCCTAATCTTTCTGTTCAAGCGCCATCTAC", "binding signal": "1.2 RPM ratio (pull-down/input)"},
      {"sequence": "GATGATTGTTCTCCCAGCTGATGAATTACGACGTTCGAGTAAACAAATTTTCCTAATCTTTCTGTTCAAGCGCCATCTAC", "binding signal": "1.04 RPM ratio (pull-down/input)"},
      {"sequence": "GATGATTGTTCTCCCAGCTGATGAATTGTCTCTGTCGAGTAAACAAATTTTCCTAATCTTTCTGTTCAAGCGCCATCTAC", "binding signal": "0.977 RPM ratio (pull-down/input)"},
      {"sequence": "GATGATTGTTCTCCCAGCTGATGAATTAACGTAATCGAGTAAACAAATTTTCCTAATCTTTCTGTTCAAGCGCCATCTAC", "binding signal": "1.59 RPM ratio (pull-down/input)"},
      {"sequence": "GATGATTGTTCTCCCAGCTGATGAATTGGATGAGTCGAGTAAACAAATTTTCCTAATCTTTCTGTTCAAGCGCCATCTAC", "binding signal": "0.883 RPM ratio (pull-down/input)"},
      {"sequence": "GATGATTGTTCTCCCAGCTGATGAATTTGCGACATCGAGTAAACAAATTTTCCTAATCTTTCTGTTCAAGCGCCATCTAC", "binding signal": "1.18 RPM ratio (pull-down/input)"},
      {"sequence": "GATGATTGTTCTCCCAGCTGATGAATTTTAGCTCTCGAGTAAACAAATTTTCCTAATCTTTCTGTTCAAGCGCCATCTAC", "binding signal": "0.796 RPM ratio (pull-down/input)"},
      {"sequence": "GATGATTGTTCTCCCAGCTGATGAATTCAGACGTTCGAGTAAACAAATTTTCCTAATCTTTCTGTTCAAGCGCCATCTAC", "binding signal": "0.787 RPM ratio (pull-down/input)"},
      {"sequence": "GATGATTGTTCTCCCAGCTGATGAATTGACAGGCTCGAGTAAACAAATTTTCCTAATCTTTCTGTTCAAGCGCCATCTAC", "binding signal": "1.03 RPM ratio (pull-down/input)"},
      {"sequence": "GATGATTGTTCTCCCAGCTGATGAATTGTGGTATTCGAGTAAACAAATTTTCCTAATCTTTCTGTTCAAGCGCCATCTAC", "binding signal": "1.22 RPM ratio (pull-down/input)"},
      {"sequence": "GATGATTGTTCTCCCAGCTGATGAATTCTACACCTCGAGTAAACAAATTTTCCTAATCTTTCTGTTCAAGCGCCATCTAC", "binding signal": "0.866 RPM ratio (pull-down/input)"}
    ]}
  ]
}
